In US20260055173A1 (published 2026):

Columns and labels:
[1] = target: T1, human PD-1 (ACRO, His tag) (human, UniProt Q15116 partial chain); assay: ELISA, human PD-1 (His tag) coated, anti-human IgG Fc-HRP
T1 construct: not shown: His tag
Experimental: (§1) The binding of the antibody to human PD-1 was detected by ELISA. 1 μg/mL human PD-1 (ACRO, His tag) was coated on an ELISA plate overnight and blocked. Subsequently, the plate was added with gradient dilutions of the bispecific antibody and the control antibody, incubated and washed. Then, the plate was added with HRP-labeled anti-human IgG Fc secondary antibody, incubated and washed. After TMB solution was added for color development, the OD450 absorbance value was read on a microplate reader (see Table 12). […] Subsequently, the plate was added with gradient dilutions of the sample to be tested and the control antibody, incubated and washed. Then, the plated was added with HRP-labeled anti-human IgG Fc secondary antibody, incubated and washed. After TMB solution was added for color development, the OD450 absorbance value was read on a microplate reader (see Table 13). […] (The control substances were all obtained by in-house expression and purification)

VEGF = assay: cell-based or functional assay
[2] = target: T2, biotin-labeled human VEGF (ACRO, biotinylated protein) (human, UniProt P15692-4 27-191, limits assumed, biotinylated (site not stated)); assay: competition ELISA: human VEGFR1 (Fc tag) coated, antibody mixed with biotinylated human VEGF, streptavidin-HRP
T2 sequence (looked up): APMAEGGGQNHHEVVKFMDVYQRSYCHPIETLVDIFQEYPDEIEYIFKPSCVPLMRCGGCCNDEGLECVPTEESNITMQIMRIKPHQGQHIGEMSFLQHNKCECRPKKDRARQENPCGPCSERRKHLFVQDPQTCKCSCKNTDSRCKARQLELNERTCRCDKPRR
Experimental: (§2) ELISA plates were respectively coated with 2 μg/mL human VEGFR1 and 5 μg/mL human VEGFR2 (in-house constructed and expressed, Fc tag) overnight, washed and blocked. […] Then the plates were added with HRP-labeled streptavidin and incubated for 1 hour. After TMB solution was added for color development, the OD450 nm absorbance value was read on a microplate reader.

[3] = target: monkey PD-1 (ACRO, His tag) (monkey, UniProt B0LAJ3 25-170); assay: ELISA, monkey PD-1 (His tag) coated, anti-human IgG Fc-HRP
Experimental: The binding of candidate molecules and competitor to antigens of different species was detected by ELISA. […] The binding of antibodies to monkey PD-1 was detected by ELISA. An ELISA plate was coated with 1 μg/mL monkey PD-1 (ACRO, His tag) overnight and blocked. Subsequently, the plate was added with gradient dilutions of the sample to be tested and the control antibody, incubated and washed. Then, the plate was added with HRP-labeled anti-human IgG Fc secondary antibody, incubated and washed. After TMB solution was added for color development, the OD450 absorbance value was read on a microplate reader (see Table 15).

[4] = target: T1, human PD-1 (ACRO, His tag); assay: dual (bridging) ELISA: human PD-1 (His tag) coated, antibody, then biotinylated human VEGF, streptavidin-HRP
Experimental: The order of the binding to VEGF and PD-1 was changed for dual ELISA detection. A 96-well ELISA plate was coated with 1 μg/mL human PD-1 (ACRO, His tag) overnight, washed and blocked for 1 hour. […] TMB solution was added for color development, and the OD450 nm absorbance value was read on a microplate reader.

[5] = target: T3, human PD-1 (ACRO, Fc tag) (human, UniProt Q15116 partial chain); assay: competition ELISA: human PD-1 (Fc tag) coated, antibody mixed with human PD-L1 (His tag), anti-His-HRP
T3 construct: not shown: Fc tag
Experimental: An ELISA plate was coated with 1 ug/mL of human PD-1 (ACRO, Fc tag) overnight, washed and blocked. […] Then the plate was added with HRP-labeled anti-His antibody, and incubated for 1 hour. After TMB solution was added for color development, the OD450 absorbance value was read on a microplate reader (see Table 16).

[6] = target: T4, human VEGF (ACRO, His tag) (human, UniProt P15692-4 27-191, limits assumed); assay: ELISA, human VEGF (His tag) coated, anti-human IgG Fc-HRP
T4 construct: not shown: His tag
T4 sequence (looked up): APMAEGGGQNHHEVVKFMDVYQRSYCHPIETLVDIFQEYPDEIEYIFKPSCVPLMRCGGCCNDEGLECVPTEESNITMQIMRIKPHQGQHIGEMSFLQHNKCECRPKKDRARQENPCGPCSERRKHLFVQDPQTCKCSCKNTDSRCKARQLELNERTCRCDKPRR
Experimental: as §1

[7] = target: T5, human VEGF (Sino Biological, no label) (human, UniProt P15692-4 27-191, limits assumed); assay: dual (bridging) ELISA: human VEGF (no label) coated, antibody, then human PD-1 (His tag), anti-His-HRP
T5 sequence (looked up): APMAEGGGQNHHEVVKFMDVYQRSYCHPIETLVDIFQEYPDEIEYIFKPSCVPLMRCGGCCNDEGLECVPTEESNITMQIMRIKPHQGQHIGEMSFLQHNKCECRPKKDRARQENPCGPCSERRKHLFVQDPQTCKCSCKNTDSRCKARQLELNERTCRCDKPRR
Experimental: Biological, no label) overnight, washed and blocked for 1 hour. Subsequently, the plate was added with gradient dilutions of the test antibody, incubated for 2 hours, then added with 1 μg/mL of human PD-1 (ACRO, His tag), incubated for 2 hours, washed, and incubated with HRP-labeled anti-His antibody for 1 hour. After TMB solution was added for color development, the OD450 nm absorbance value was read on a microplate reader.

[8] = target: T2, biotin-labeled human VEGF (ACRO, …); assay: competition ELISA: human VEGFR2 (Fc tag) coated, antibody mixed with biotinylated human VEGF, streptavidin-HRP
Experimental: as §2

T1 sequence (Q15116 25-167 limits assumed): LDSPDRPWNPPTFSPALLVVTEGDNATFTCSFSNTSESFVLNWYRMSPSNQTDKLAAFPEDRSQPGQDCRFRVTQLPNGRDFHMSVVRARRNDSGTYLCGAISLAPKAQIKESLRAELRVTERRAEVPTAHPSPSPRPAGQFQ
Chain of UniProt B0LAJ3 (B0LAJ3 entry or part of it limits assumed, form in doubt): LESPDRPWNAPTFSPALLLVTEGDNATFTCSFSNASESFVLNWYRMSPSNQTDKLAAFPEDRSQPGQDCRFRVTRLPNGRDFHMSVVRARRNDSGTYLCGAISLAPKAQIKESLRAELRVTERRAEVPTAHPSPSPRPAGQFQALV

- EC50 [1]: 0.528 nM
- TOP OD [1]: 2.19 OD450
- maximum inhibition rate (HUVEC proliferation) (VEGF): ~40%
- IC50 [2]: 4.61 nM
- EC50 [3]: 1.7 nM
- TOP OD [3]: 2.56 OD450
- EC50 [4]: 0.634 nM
- TOP OD [4]: 3.42 OD450
- IC50 [5]: 2.9 nM
- EC50 [6]: 0.64 nM
- TOP OD [6]: 2.68 OD450
- EC50 [7]: 0.254 nM
- IC50 [8]: 6.48 nM
B1: AK112 analog (bispecific antibody, human IgG1, kappa)
heavy: EVQLVESGGGLVQPGGSLRLSCAASGYTFTNYGMNWVRQAPGKGLEWVGWINTYTGEPTYAADFKRRFTFSLDTSKSTAYLQMNSLRAEDTAVYYCAKYPHYYGSSHWYFDVWGQGTLVTVSSASTKGPSVFPLAPSSKSTSGGTAALGCLVKDYFPEPVTVSWNSGALTSGVHTFPAVLQSSGLYSLSSVVTVPSSSLGTQTYICNVNHKPSNTKVDKKV[human IgG1 Fc with changes left out]GGGGSGGGGSGGGGSGGGGSEVQLVESGGGLVQPGGSLRLSCAASGFAFSSYDMSWVRQAPGKGLDWVATISGGGRYTYYPDSVKGRFTISRDNSKNNLYLQMNSLRAEDTALYYCANRYGEAWFAYWGQGTLVTVSSGGGGSGGGGSGGGGSGGGGSDIQMTQSPSSMSASVGDRVTFTCRASQDINTYLSWFQQKPGKSPKTLIYRANRLVSGVPSRFSGSGSGQDYTLTISSLQPEDMATYYCLQYDEFPLTFGAGTKLELK
light: DIQMTQSPSSLSASVGDRVTITCSASQDISNYLNWYQQKPGKAPKVLIYFTSSLHSGVPSRFSGSGSGTDFTLTISSLQPEDFATYYCQQYSTVPWTFGQGTKVEIKRTVAAPSVFIFPPSDEQLKSGTASVVCLLNNFYPREAKVQWKVDNALQSGNSQESVTEQDSKDSTYSLSSTLTLSKADYEKHKVYACEVTHQGLSSPVTKSFNRGEC
notes: Prepared in-house; bispecific antibody targeting PD-1 and VEGF; its anti-VEGF part is a Bevacizumab antibody fragment; also called control AK112 analog
